Test results as given in publication PMC4336329 (PLoS ONE, 2015).
Among all 310,000 compounds or so, about 2,200 (0.71%) showed an effect of 50% or more. Effects have a minus sign here. This is one part of the list.

What follows are molecules tested against human ether-à-go-go-related gene (hERG) potassium channel (human, UniProt Q12809) (assay: primary screen, population patch clamp on CHO cells stably expressing hERG).
human ether-à-go-go-related gene (hERG) potassium channel, sequence (Q12809 whole entry, looked up): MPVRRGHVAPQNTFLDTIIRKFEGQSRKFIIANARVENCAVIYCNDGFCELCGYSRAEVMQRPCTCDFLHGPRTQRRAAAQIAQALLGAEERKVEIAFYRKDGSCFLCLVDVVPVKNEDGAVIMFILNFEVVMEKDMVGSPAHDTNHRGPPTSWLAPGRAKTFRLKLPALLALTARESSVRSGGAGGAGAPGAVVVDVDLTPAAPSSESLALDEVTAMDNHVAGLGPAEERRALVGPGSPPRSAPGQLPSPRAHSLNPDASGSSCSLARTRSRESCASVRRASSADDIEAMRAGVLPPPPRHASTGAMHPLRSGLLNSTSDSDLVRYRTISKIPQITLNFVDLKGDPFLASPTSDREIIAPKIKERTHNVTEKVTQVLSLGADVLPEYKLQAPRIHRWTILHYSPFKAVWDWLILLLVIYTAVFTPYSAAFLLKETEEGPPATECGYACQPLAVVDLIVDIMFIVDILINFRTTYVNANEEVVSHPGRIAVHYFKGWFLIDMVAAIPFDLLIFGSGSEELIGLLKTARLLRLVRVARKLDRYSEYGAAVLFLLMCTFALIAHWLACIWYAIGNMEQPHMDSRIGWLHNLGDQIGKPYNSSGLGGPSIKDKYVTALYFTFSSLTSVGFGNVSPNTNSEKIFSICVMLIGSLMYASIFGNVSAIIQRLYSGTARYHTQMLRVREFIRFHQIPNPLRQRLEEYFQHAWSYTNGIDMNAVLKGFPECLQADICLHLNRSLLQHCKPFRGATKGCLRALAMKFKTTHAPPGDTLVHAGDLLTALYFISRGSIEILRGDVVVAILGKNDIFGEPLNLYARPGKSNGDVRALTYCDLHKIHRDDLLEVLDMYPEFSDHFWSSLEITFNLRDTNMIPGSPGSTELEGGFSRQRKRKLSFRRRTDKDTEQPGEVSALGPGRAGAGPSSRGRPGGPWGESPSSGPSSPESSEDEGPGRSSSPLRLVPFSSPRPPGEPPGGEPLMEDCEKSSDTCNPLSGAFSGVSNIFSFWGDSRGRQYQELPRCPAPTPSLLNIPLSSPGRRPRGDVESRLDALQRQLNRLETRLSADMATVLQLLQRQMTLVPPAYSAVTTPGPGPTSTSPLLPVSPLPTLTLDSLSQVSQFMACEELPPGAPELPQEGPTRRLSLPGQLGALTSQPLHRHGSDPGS

Row | Compound | hERG current change (%, negative = inhibition) at 1uM
1 | Cc1nc(NCCc2ccccc2)c2oc3ccccc3c2n1 | 18.7%
2 | Cc1nc2sc3c(c2c(=O)[nH]1)CCC3 | 6.19%
3 | COCCn1c(SC)nnc1-c1c[nH]c2ccccc12 | 15.9%
4 | CCOC(=O)CN(C(=O)CNC(=O)c1ccco1)C(C(=O)NC1CCCCC1)c1cccnc1 (stereo not drawn) | 17.7%
5 | O=C1COc2ccc(S(=O)(=O)N3CCC(C(=O)NCc4ccccc4)CC3)cc2N1 | 8.27%
6 | O=C(Nc1cc(Cl)cc(Cl)c1)c1coc(=O)c(Br)c1 | 15.8%
7 | COc1ccc(S(=O)(=O)N2CCN(C3CCCC(C)C3)CC2)cc1.O=C(O)C(=O)O (stereo not drawn) | 2.71%
8 | CCOC(=O)CSc1nc(N)c(C#N)c(-c2cccs2)c1C#N | 11.6%
9 | Cc1ccc2c(c1)Oc1ccc([N+](=O)[O-])cc1C(=O)N2 | 8.4%
10 | Cc1ccc(S(=O)(=O)Nc2ccc(NC(=O)Nc3cccc(C(F)(F)F)c3)cc2)cc1 | 12.3%
11 | COC(=O)c1ccccc1S(=O)(=O)N1CCC(C(=O)OCc2cccc(OC)c2OC)CC1 | -3.4%
12 | CCc1ccc(OCC(=O)NC(NC(=S)Nc2ccccc2C)C(Cl)(Cl)Cl)cc1 (stereo not drawn) | 5.61%
13 | CN(C(=O)CC1C(=O)NCCN1Cc1ccccc1F)C1CCOCC1 (stereo not drawn) | 9.26%
14 | Cc1c(C(=O)NNS(=O)(=O)c2ccccc2)sc(=S)n1C | 3.6%
15 | COC(=O)C(Nc1nccs1)(OC)C(F)(F)F (stereo not drawn) | -4.8%
16 | O=C1/C(=C/c2cccs2)CCc2ccccc21 | 3.21%
17 | Cc1cc(C)cc(OCC(=O)OCC(=O)N2CC(=O)Nc3ccccc32)c1 | 0.901%
18 | CCn1cc(-c2n[nH]c(=S)n2-c2ccc(C)cc2Br)c(=O)c2ccc(C)nc21 | 12.7%
19 | CCOc1nc(C)ccc1-c1noc(CC)n1 | 17.4%
20 | CC(C)C[C@H](NC(=O)Nc1ccc(S(N)(=O)=O)cc1)C(=O)O | 8.92%
21 | O=C(Nc1cccc(S(=O)(=O)N2CCCCC2)c1)C1=NN(c2ccccc2)C(=O)CC1 | 0.762%
22 | CC(=O)c1c(C)[nH]c(C(=O)NCCc2c[nH]c3ccccc23)c1C | 11.1%
23 | CC(=O)NS(=O)(=O)c1ccc(NC(=O)c2ccc(-n3nc(C)cc3C)cc2)cc1 | 5.8%

Row | Compound | hERG current change (%, negative = inhibition) at 1uM
24 | CCOc1ccc2nc(NC(=O)CCC(=O)c3cccs3)sc2c1 | 5.4%
25 | CC(C)(CN1CCc2ccccc2C1)NS(=O)(=O)c1ccccc1 | 12.6%
26 | COc1ccc(Cl)cc1NC(=O)c1[nH]nc(OC)c1[N+](=O)[O-] | 10.8%
27 | O=C(Cc1ccccc1)Nc1ccc(N2CCOCC2)cc1N1CCOCC1 | 4.78%
28 | O=C(NN=C1CCCC1)c1ccc(O)cc1O | 8.84%
29 | Cc1cccc(NCCC#N)c1 | 15%
30 | O=C(CNC(=O)c1ccccc1C(F)(F)F)N/N=C/c1cccs1 | 3.32%
31 | O=C(NCCCO)/C(=C/c1ccco1)NC(=O)c1ccc(Br)o1 | 18%
32 | c1ccc(Nc2ncnc3sc4c(c23)CCC4)cc1 | -0.67%
33 | CSCCC(NC(=O)COc1ccccc1)C(=O)N1CCC(C(N)=O)CC1 (stereo not drawn) | 7.88%
34 | Cc1ccc2c(c1)CCCN2CC(=O)Nc1cc(S(=O)(=O)N2CCCC2)ccc1Cl | 2.41%
35 | CCn1c(COc2ccccc2OC)nc2ccccc21 | 12.7%
36 | CC1=CCC(/C=N\Nc2nnc3c(n2)[nH]c2ccccc23)CC1 (stereo not drawn) | 4.4%
37 | CCn1c(SCC(=O)Nc2cc(NC(C)=O)ccc2OC)nnc1-c1cccnc1 | 7.42%
38 | O=c1c2c3c(sc2nc2n1CCCS2)CCCC3 | 0.926%
39 | O=C1C2CCCN2C(c2ccc(Cl)cc2)N1c1ccccn1 (stereo not drawn) | 1.91%
40 | CN(C)S(=O)(=O)c1ccc(-n2cccc2)cc1 | 3.19%
41 | COc1ccc(C(=O)c2sc(NC(C)C)nc2N)cc1OC | 2.38%
42 | C=CCN(Cc1nc(-c2cc(OC)ccc2OC)oc1C)C1CCS(=O)(=O)C1 (stereo not drawn) | 13.7%
43 | COc1ccccc1NC(=O)c1cc(C)nc2ccccc12 | 14.4%
44 | O=C(NCCCn1ccnc1)C(F)(F)C(F)(F)C(=O)NCCCn1ccnc1 | 14.4%
45 | C=CCn1c2ccccc2c2nnc(SCC(=O)O)nc21 | 17.6%
